The values below come from the supplement of paper PMC12217912.

B1: TEV protease; numbered along this chain (parent)
chain: MGESLFKGPRDYNPISSSICHLTNESDGHTTSLYGIGFGPFIITNKHLFRRNNGTLVVQSLHGVFKVKDTTTLQQHLVDGRDMIIIRMPKDFPPFPQKLKFREPQREERICLVTTNFQTKSMSSMVSDTSCTFPSGDGIFWKHWIQTKDGQCGSPLVSTRDGFIVGIHSASNFTNTNNYFTSVPKNFMELLTNQEAQQWVSGWRLNADSVLWGGHKVFMVKPEEPFQPVKEATQL

This test covers variants of B1. Put plainly: raw area under fraction-flipped curve 0-4 h after induction (AUC4h, not background-subtracted), DNA-recorder readout of cleavage of the substrate (dimensionless); higher = more cleavage of the substrate by the protease variant. The settings on record: temperature: 34 °C; time window: 0-4 h after rhamnose induction. The procedure:
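In vivo DNA recorder in E. coli TOP10(DE3) ΔrhaA at 34 °C. Each TEVp single-site mutant (parent TEVp 0) is paired with a single-site variant of the 7-mer TEVs (canonical ENLYFQ|S). The substrate sits between flexible linkers in a Bxb1-sfGFP-TEVs-SsrA fusion, so cleavage stabilises Bxb1 and speeds flipping of a recombination array, read by NGS. The value is the raw area under the fraction-flipped curve over 0-4 h after rhamnose induction (AUC4h), with ≥20 reads per time point. It is not background-subtracted; inactive controls average about 0.047.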

Some of the results follow. The full chains were built here from the parent and the listed change. Values near 0.05 are background.
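Note: Bxb1 expression induced with 0.2% (w/v) L-rhamnose at OD600 near 0.5, cultures sampled hourly, flipped fraction per protease–substrate barcode pair counted by paired-end Illumina sequencing.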

MGESLFKGPPDYNPISSSICHLTNESDGHTTSLYGIGFGPFIITNKHLFRRNNGTLVVQSLHGVFKVKDTTTLQQHLVDGRDMIIIRMPKDFPPFPQKLKFREPQREERICLVTTNFQTKSMSSMVSDTSCTFPSGDGIFWKHWIQTKDGQCGSPLVSTRDGFIVGIHSASNFTNTNNYFTSVPKNFMELLTNQEAQQWVSGWRLNADSVLWGGHKVFMVKPEEPFQPVKEATQL [R10P]: the “area with substrate ENLAFQS” value was determined as 0.0802, the “area with substrate ENLCFQS” value amounted to 0.0724, the “area with substrate ENLDFQS” value is 0.0659 and the “area with substrate ENLEFQS” value is 0.0589. Besides, the “area with substrate ENLFFQS” value turned out to be 0.0726, the “area with substrate ENLHFQS” value is 0.0687, the “area with substrate ENLKFQS” value stood at 0.0768 and the “area with substrate ENLMFQS” value is 0.0728. Besides, the “area with substrate ENLNFQS” value is 0.0683, the “area with substrate ENLPFQS” value was determined as 0.0484, the “area with substrate ENLQFQS” value was found to be 0.053 and the “area with substrate ENLRFQS” value was determined as 0.0709. Moreover, the “area with substrate ENLSFQS” value stood at 0.0647 and the “area with substrate ENLWFQS” value turned out to be 0.0644.
For MGESLFKGPRDHNPISSSICHLTNESDGHTTSLYGIGFGPFIITNKHLFRRNNGTLVVQSLHGVFKVKDTTTLQQHLVDGRDMIIIRMPKDFPPFPQKLKFREPQREERICLVTTNFQTKSMSSMVSDTSCTFPSGDGIFWKHWIQTKDGQCGSPLVSTRDGFIVGIHSASNFTNTNNYFTSVPKNFMELLTNQEAQQWVSGWRLNADSVLWGGHKVFMVKPEEPFQPVKEATQL [Y12H], the “area with substrate ENLAFQS” value was 0.0652, the “area with substrate ENLCFQS” value was 0.103, the “area with substrate ENLDFQS” value stood at 0.0627 and the “area with substrate ENLEFQS” value was 0.059. The “area with substrate ENLFFQS” value was 0.0825, the “area with substrate ENLHFQS” value was 0.0668, the “area with substrate ENLIFQS” value is 0.0825 and the “area with substrate ENLKFQS” value stood at 0.077. Besides, the “area with substrate ENLMFQS” value is 0.0663, the “area with substrate ENLNFQS” value was found to be 0.0064, the “area with substrate ENLPFQS” value was 0.063 and the “area with substrate ENLQFQS” value is 0.0729. Besides, the “area with substrate ENLRFQS” value was 0.0805, the “area with substrate ENLSFQS” value stood at 0.0629, the “area with substrate ENLVFQS” value turned out to be 0.084 and the “area with substrate ENLWFQS” value came out at 0.0574.
For the variant MGESLFKGPRDWNPISSSICHLTNESDGHTTSLYGIGFGPFIITNKHLFRRNNGTLVVQSLHGVFKVKDTTTLQQHLVDGRDMIIIRMPKDFPPFPQKLKFREPQREERICLVTTNFQTKSMSSMVSDTSCTFPSGDGIFWKHWIQTKDGQCGSPLVSTRDGFIVGIHSASNFTNTNNYFTSVPKNFMELLTNQEAQQWVSGWRLNADSVLWGGHKVFMVKPEEPFQPVKEATQL [Y12W], the “area with substrate ENLAFQS” value was determined as 0.061, the “area with substrate ENLDFQS” value stood at 0.0703, the “area with substrate ENLFFQS” value turned out to be 0.086 and the “area with substrate ENLHFQS” value was 0.0792. Besides, the “area with substrate ENLIFQS” value is 0.0727, the “area with substrate ENLKFQS” value came to 0.0683, the “area with substrate ENLLFQS” value was 0.0715 and the “area with substrate ENLNFQS” value was 0.0732. The “area with substrate ENLPFQS” value worked out at 0.0514, the “area with substrate ENLQFQS” value was determined as 0.0782, the “area with substrate ENLRFQS” value came to 0.0707 and the “area with substrate ENLSFQS” value turned out to be 0.0544. The “area with substrate ENLWFQS” value worked out at 0.0788.
Regarding MGESLFKGPRDKNPISSSICHLTNESDGHTTSLYGIGFGPFIITNKHLFRRNNGTLVVQSLHGVFKVKDTTTLQQHLVDGRDMIIIRMPKDFPPFPQKLKFREPQREERICLVTTNFQTKSMSSMVSDTSCTFPSGDGIFWKHWIQTKDGQCGSPLVSTRDGFIVGIHSASNFTNTNNYFTSVPKNFMELLTNQEAQQWVSGWRLNADSVLWGGHKVFMVKPEEPFQPVKEATQL [Y12K], the “area with substrate ENLAFQS” value is 0.0652, the “area with substrate ENLCFQS” value came out at 0.0688, the “area with substrate ENLDFQS” value came to 0.0649 and the “area with substrate ENLEFQS” value came to 0.0714. Moreover, the “area with substrate ENLFFQS” value turned out to be 0.0851, the “area with substrate ENLHFQS” value is 0.0619, the “area with substrate ENLIFQS” value worked out at 0.0895 and the “area with substrate ENLKFQS” value was found to be 0.0729. In addition, the “area with substrate ENLLFQS” value was found to be 0.0583, the “area with substrate ENLMFQS” value was found to be 0.0646, the “area with substrate ENLNFQS” value amounted to 0.0704 and the “area with substrate ENLPFQS” value amounted to 0.062. Moreover, the “area with substrate ENLSFQS” value turned out to be 0.0668, the “area with substrate ENLVFQS” value is 0.0632 and the “area with substrate ENLWFQS” value was 0.0658.
Regarding MGESLFKGPRDSNPISSSICHLTNESDGHTTSLYGIGFGPFIITNKHLFRRNNGTLVVQSLHGVFKVKDTTTLQQHLVDGRDMIIIRMPKDFPPFPQKLKFREPQREERICLVTTNFQTKSMSSMVSDTSCTFPSGDGIFWKHWIQTKDGQCGSPLVSTRDGFIVGIHSASNFTNTNNYFTSVPKNFMELLTNQEAQQWVSGWRLNADSVLWGGHKVFMVKPEEPFQPVKEATQL [Y12S], the “area with substrate ENLAFQS” value is 0.0701, the “area with substrate ENLDFQS” value is 0.0587, the “area with substrate ENLEFQS” value is 0.0708 and the “area with substrate ENLFFQS” value amounted to 0.0777. Further, the “area with substrate ENLHFQS” value turned out to be 0.0877, the “area with substrate ENLKFQS” value is 0.0707, the “area with substrate ENLLFQS” value came to 0.116 and the “area with substrate ENLMFQS” value is 0.0776. The “area with substrate ENLNFQS” value was 0.0647, the “area with substrate ENLPFQS” value amounted to 0.0674, the “area with substrate ENLSFQS” value was determined as 0.0759 and the “area with substrate ENLTFQS” value came out at 0.0696. For the same variant, the “area with substrate ENLWFQS” value came out at 0.0748.
For the variant MGESLFKGPRDYRPISSSICHLTNESDGHTTSLYGIGFGPFIITNKHLFRRNNGTLVVQSLHGVFKVKDTTTLQQHLVDGRDMIIIRMPKDFPPFPQKLKFREPQREERICLVTTNFQTKSMSSMVSDTSCTFPSGDGIFWKHWIQTKDGQCGSPLVSTRDGFIVGIHSASNFTNTNNYFTSVPKNFMELLTNQEAQQWVSGWRLNADSVLWGGHKVFMVKPEEPFQPVKEATQL [N13R], the “area with substrate ENLAFQS” value is 0.067, the “area with substrate ENLCFQS” value was 0.071, the “area with substrate ENLDFQS” value came to 0.0693 and the “area with substrate ENLFFQS” value worked out at 0.0952. Besides, the “area with substrate ENLGFQS” value came to 0.0402, the “area with substrate ENLHFQS” value is 0.0778, the “area with substrate ENLKFQS” value is 0.0771 and the “area with substrate ENLLFQS” value was determined as 0.0874. Also, the “area with substrate ENLNFQS” value amounted to 0.0701, the “area with substrate ENLPFQS” value is 0.0599, the “area with substrate ENLQFQS” value was 0.0627 and the “area with substrate ENLRFQS” value was found to be 0.0824. The “area with substrate ENLSFQS” value came to 0.0594 and the “area with substrate ENLWFQS” value came to 0.0965.
In the case of MGESLFKGPRDYKPISSSICHLTNESDGHTTSLYGIGFGPFIITNKHLFRRNNGTLVVQSLHGVFKVKDTTTLQQHLVDGRDMIIIRMPKDFPPFPQKLKFREPQREERICLVTTNFQTKSMSSMVSDTSCTFPSGDGIFWKHWIQTKDGQCGSPLVSTRDGFIVGIHSASNFTNTNNYFTSVPKNFMELLTNQEAQQWVSGWRLNADSVLWGGHKVFMVKPEEPFQPVKEATQL [N13K], the “area with substrate ENLAFQS” value amounted to 0.0644, the “area with substrate ENLCFQS” value is 0.0576, the “area with substrate ENLDFQS” value was determined as 0.062 and the “area with substrate ENLEFQS” value is 0.0682. Also, the “area with substrate ENLFFQS” value was 0.0791, the “area with substrate ENLHFQS” value was determined as 0.0716, the “area with substrate ENLIFQS” value was 0.0657 and the “area with substrate ENLKFQS” value turned out to be 0.0666. In addition, the “area with substrate ENLLFQS” value is 0.0652, the “area with substrate ENLNFQS” value is 0.0615, the “area with substrate ENLPFQS” value was found to be 0.057 and the “area with substrate ENLRFQS” value turned out to be 0.0886. The “area with substrate ENLSFQS” value amounted to 0.0587, the “area with substrate ENLTFQS” value is 0.0615 and the “area with substrate ENLWFQS” value came out at 0.0651.
As for MGESLFKGPRDYGPISSSICHLTNESDGHTTSLYGIGFGPFIITNKHLFRRNNGTLVVQSLHGVFKVKDTTTLQQHLVDGRDMIIIRMPKDFPPFPQKLKFREPQREERICLVTTNFQTKSMSSMVSDTSCTFPSGDGIFWKHWIQTKDGQCGSPLVSTRDGFIVGIHSASNFTNTNNYFTSVPKNFMELLTNQEAQQWVSGWRLNADSVLWGGHKVFMVKPEEPFQPVKEATQL [N13G], the “area with substrate ENLAFQS” value amounted to 0.0698, the “area with substrate ENLCFQS” value was determined as 0.0612, the “area with substrate ENLDFQS” value was determined as 0.0646 and the “area with substrate ENLEFQS” value came to 0.0274. In addition, the “area with substrate ENLFFQS” value worked out at 0.072, the “area with substrate ENLHFQS” value was 0.0666, the “area with substrate ENLKFQS” value was found to be 0.0772 and the “area with substrate ENLLFQS” value worked out at 0.103. The “area with substrate ENLMFQS” value worked out at 0.0744, the “area with substrate ENLNFQS” value was found to be 0.0667, the “area with substrate ENLPFQS” value came out at 0.0554 and the “area with substrate ENLQFQS” value amounted to 0.0729. Moreover, the “area with substrate ENLRFQS” value came out at 0.0641, the “area with substrate ENLSFQS” value stood at 0.0737 and the “area with substrate ENLTFQS” value is 0.0711.
For the variant MGESLHKGPRDYNPISSSICHLTNESDGHTTSLYGIGFGPFIITNKHLFRRNNGTLVVQSLHGVFKVKDTTTLQQHLVDGRDMIIIRMPKDFPPFPQKLKFREPQREERICLVTTNFQTKSMSSMVSDTSCTFPSGDGIFWKHWIQTKDGQCGSPLVSTRDGFIVGIHSASNFTNTNNYFTSVPKNFMELLTNQEAQQWVSGWRLNADSVLWGGHKVFMVKPEEPFQPVKEATQL [F6H], the “area with substrate ENLAFQS” value came to 0.0547, the “area with substrate ENLDFQS” value turned out to be 0.0707, the “area with substrate ENLEFQS” value was found to be 0.0652 and the “area with substrate ENLFFQS” value was 0.0593. Moreover, the “area with substrate ENLKFQS” value worked out at 0.0834, the “area with substrate ENLLFQS” value was 0.0789, the “area with substrate ENLMFQS” value came out at 0.0907 and the “area with substrate ENLPFQS” value amounted to 0.0549. Besides, the “area with substrate ENLQFQS” value came out at 0.08, the “area with substrate ENLSFQS” value is 0.0814 and the “area with substrate ENLWFQS” value was determined as 0.0688.
